Data as given in the supplement of paper PMC4967469.
By IC50 is meant the dose at which the fit gives 50% viability; where the fit passes the top or lowest dose, that dose stands as a limit. AUC sums up the same curve from the lowest dose to the 256-fold higher top dose; it is 1 without any effect and falls as sensitivity rises. Where the top dose is marked as inferred, it is not printed in the source and was worked back from the curve model. For some assays here: An entry number marks a drug with two screens in the source, which often give different values.

Compound: Cc1ccc(-n2nc(C(C)(C)C)cc2NC(=O)Nc2ccc(OCCN3CCOCC3)c3ccccc23)cc1 [BIRB 0796]
Assay: Viability of human cancer cell lines after 72 h of drug (GDSC screen)
Conditions: top dose 10 µM; top dose inferred
Description: (§1)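 Human cancer cell lines in 384-well plates, medium with 10% serum, drug for 72 h over a 256-fold dose range (nine 2-fold or five 4-fold steps up to the top dose). Adherent lines were fixed and stained with the nucleic acid dye Syto60, suspension lines read with resazurin; signal relative to control wells, capped at 0 and 100%. One two-parameter sigmoid per drug and line, fitted in a mixed model over all curves with the slope shared within a line.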

| Cell Line | AUC | IC50 [µM] |
| --- | --- | --- |
| NEC8 (testis, adherent) | 0.899 | 9.26 |
| NOMO-1 (acute myeloid leukaemia, suspension) | 0.982 | > 10 |
| OVCAR-4 (ovary, adherent) | 0.909 | > 10 |
| RS4-11 (leukaemia, suspension) | 0.983 | > 10 |
| SCC-15 (head and neck, adherent) | 0.885 | > 10 |
| SKM-1 (haematopoietic neoplasm, suspension) | 0.984 | > 10 |
| SNU-C1 (large intestine, suspension) | 0.977 | > 10 |
| SU-DHL-8 (B-cell lymphoma, suspension) | 0.988 | > 10 |
| TC-71 (Ewing sarcoma, adherent) | 0.952 | > 10 |
| TE-10 (oesophagus, adherent) | 0.988 | > 10 |

Compound: O=C1NC(=O)c2c1c(-c1ccccc1Cl)cc1[nH]c3ccc(O)cc3c21 [Wee1 inhibitor 681640]
Assay: as above
Conditions: top dose 2 µM; top dose inferred
Description: as §1

| Cell Line | AUC | IC50 [µM] |
| --- | --- | --- |
| ALL-SIL (T-cell leukaemia, suspension) | 0.964 | > 2 |
| ES3 (Ewing sarcoma, adherent) | 0.941 | > 2 |
| ES8 (Ewing sarcoma, adherent) | 0.942 | > 2 |
| IST-SL2 (small cell lung carcinoma, suspension) | 0.958 | > 2 |
| K-562 (chronic myeloid leukaemia, suspension) | 0.963 | > 2 |
| LB647-SCLC (small cell lung carcinoma, semi-adherent) | 0.969 | > 2 |
| LB996-RCC (kidney, adherent) | 0.98 | > 2 |
| LNCaP-Clone-FGC (prostate, adherent) | 0.952 | > 2 |
| LOXIMVI (melanoma, semi-adherent) | 0.902 | > 2 |
| NB7 (neuroblastoma, adherent) | 0.986 | > 2 |
| NOMO-1 (acute myeloid leukaemia, suspension) | 0.882 | > 2 |
| RS4-11 (leukaemia, suspension) | 0.905 | > 2 |
| SCC-15 (head and neck, adherent) | 0.947 | > 2 |
| SKM-1 (haematopoietic neoplasm, suspension) | 0.913 | > 2 |
| SNU-C1 (large intestine, suspension) | 0.959 | > 2 |
| SU-DHL-8 (B-cell lymphoma, suspension) | 0.988 | > 2 |
| TC-71 (Ewing sarcoma, adherent) | 0.992 | > 2 |
| TE-10 (oesophagus, adherent) | 0.945 | > 2 |

Compound: O=C(c1cc(Cc2n[nH]c(=O)c3ccccc23)ccc1F)N1CCN(C(=O)C2CC2)CC1 [Olaparib]
Assay: as above
Conditions: top dose 5 µM; screen: GDSC drug entry 1017; top dose inferred
Description: as §1

| Cell Line | AUC | IC50 [µM] |
| --- | --- | --- |
| ALL-SIL (T-cell leukaemia, suspension) | 0.981 | > 5 |
| IST-SL2 (small cell lung carcinoma, suspension) | 0.948 | > 5 |
| LB647-SCLC (small cell lung carcinoma, semi-adherent) | 0.893 | > 5 |
| LB1047-RCC (kidney, adherent) | 0.983 | > 5 |
| NEC8 (testis, adherent) | 0.937 | > 5 |
| OVCAR-4 (ovary, adherent) | 0.96 | > 5 |
| SNU-C1 (large intestine, suspension) | 0.98 | > 5 |

Same assay, conditions: top dose 10 µM; screen: GDSC drug entry 1495

| Cell Line | AUC | IC50 [µM] |
| --- | --- | --- |
| ALL-SIL (T-cell leukaemia, suspension) | 0.963 | > 10 |
| ES3 (Ewing sarcoma, adherent) | 0.799 | 5.11 |
| IST-SL2 (small cell lung carcinoma, suspension) | 0.964 | > 10 |
| LB647-SCLC (small cell lung carcinoma, semi-adherent) | 0.983 | > 10 |
| LB996-RCC (kidney, adherent) | 0.925 | > 10 |
| LB1047-RCC (kidney, adherent) | 0.971 | > 10 |
| LNCaP-Clone-FGC (prostate, adherent) | 0.932 | > 10 |
| LOXIMVI (melanoma, semi-adherent) | 0.779 | 3.64 |
| NB7 (neuroblastoma, adherent) | 0.971 | > 10 |
| OVCAR-4 (ovary, adherent) | 0.933 | > 10 |
| RS4-11 (leukaemia, suspension) | 0.929 | > 10 |
| SCC-15 (head and neck, adherent) | 0.922 | > 10 |
| SKM-1 (haematopoietic neoplasm, suspension) | 0.923 | > 10 |
| SNU-C1 (large intestine, suspension) | 0.974 | > 10 |
| SU-DHL-8 (B-cell lymphoma, suspension) | 0.907 | > 10 |
| TC-71 (Ewing sarcoma, adherent) | 0.797 | 3.82 |
| TE-10 (oesophagus, adherent) | 0.983 | > 10 |

Compound: COc1cc(N2CCN(C)CC2)ccc1Nc1ncc2c(n1)N(C)c1ccccc1C(=O)N2C [XMD8-85]
Assay: as above
Conditions: top dose 8 µM; top dose inferred
Description: as §1

| Cell Line | AUC | IC50 [µM] |
| --- | --- | --- |
| ALL-SIL (T-cell leukaemia, suspension) | 0.888 | 6.86 |
| ES3 (Ewing sarcoma, adherent) | 0.985 | > 8 |
| ES8 (Ewing sarcoma, adherent) | 0.827 | 4.39 |
| IST-SL2 (small cell lung carcinoma, suspension) | 0.798 | 3.77 |
| K-562 (chronic myeloid leukaemia, suspension) | 0.929 | > 8 |
| LB647-SCLC (small cell lung carcinoma, semi-adherent) | 0.957 | > 8 |
| LB996-RCC (kidney, adherent) | 0.831 | 6.21 |
| LB1047-RCC (kidney, adherent) | 0.931 | > 8 |
| LNCaP-Clone-FGC (prostate, adherent) | 0.977 | > 8 |
| LOXIMVI (melanoma, semi-adherent) | 0.984 | > 8 |
| NB7 (neuroblastoma, adherent) | 0.95 | > 8 |
| NEC8 (testis, adherent) | 0.955 | > 8 |
| NOMO-1 (acute myeloid leukaemia, suspension) | 0.89 | > 8 |
| OVCAR-4 (ovary, adherent) | 0.903 | > 8 |
| RS4-11 (leukaemia, suspension) | 0.803 | 3.56 |
| SCC-15 (head and neck, adherent) | 0.945 | > 8 |
| SKM-1 (haematopoietic neoplasm, suspension) | 0.979 | > 8 |
| SNU-C1 (large intestine, suspension) | 0.973 | > 8 |
| SU-DHL-8 (B-cell lymphoma, suspension) | 0.767 | 2.77 |
| TC-71 (Ewing sarcoma, adherent) | 0.992 | > 8 |
| TE-10 (oesophagus, adherent) | 0.854 | 6.11 |

Compound: CNC(=O)c1ccc(Nc2cc(Nc3ccccc3S(=O)(=O)C(C)C)c3cc[nH]c3n2)nc1 [HG-5-113-01]
Assay: as above
Conditions: top dose 10 µM; top dose inferred
Description: as §1

| Cell Line | AUC | IC50 [µM] |
| --- | --- | --- |
| ALL-SIL (T-cell leukaemia, suspension) | 0.541 | 0.796 |
| ES3 (Ewing sarcoma, adherent) | 0.616 | 1.32 |
| ES8 (Ewing sarcoma, adherent) | 0.492 | 0.595 |
| IST-SL2 (small cell lung carcinoma, suspension) | 0.945 | > 10 |
| K-562 (chronic myeloid leukaemia, suspension) | 0.694 | 2.15 |
| LB647-SCLC (small cell lung carcinoma, semi-adherent) | 0.694 | 2.36 |
| LB996-RCC (kidney, adherent) | 0.722 | 2.98 |
| LB1047-RCC (kidney, adherent) | 0.618 | 1.38 |
| LNCaP-Clone-FGC (prostate, adherent) | 0.834 | 7.86 |
| LOXIMVI (melanoma, semi-adherent) | 0.747 | 2.9 |
| NB7 (neuroblastoma, adherent) | 0.979 | > 10 |
| NEC8 (testis, adherent) | 0.818 | 4.59 |
| NOMO-1 (acute myeloid leukaemia, suspension) | 0.78 | 4.71 |
| OVCAR-4 (ovary, adherent) | 0.728 | 3.89 |
| RS4-11 (leukaemia, suspension) | 0.587 | 1.06 |
| SCC-15 (head and neck, adherent) | 0.74 | 3.92 |
| SKM-1 (haematopoietic neoplasm, suspension) | 0.721 | 2.84 |
| SNU-C1 (large intestine, suspension) | 0.738 | 4.19 |
| SU-DHL-8 (B-cell lymphoma, suspension) | 0.819 | 5.2 |
| TC-71 (Ewing sarcoma, adherent) | 0.75 | 2.8 |
| TE-10 (oesophagus, adherent) | 0.698 | 2.22 |

Compound: COc1cc(-c2nn([C@H]3CC[C@H](N4CCN(C(C)=O)CC4)CC3)c3ncnc(N)c23)ccc1NC(=O)c1cc2ccccc2n1C [A-770041]
Assay: as above
Conditions: top dose 5.12 µM; top dose inferred
Description: as §1

| Cell Line | AUC | IC50 [µM] |
| --- | --- | --- |
| ALL-SIL (T-cell leukaemia, suspension) | 0.376 | 0.154 |
| ES3 (Ewing sarcoma, adherent) | 0.966 | > 5.12 |
| ES8 (Ewing sarcoma, adherent) | 0.87 | 4.16 |
| IST-SL2 (small cell lung carcinoma, suspension) | 0.663 | 0.905 |
| K-562 (chronic myeloid leukaemia, suspension) | 0.555 | 0.45 |
| LB647-SCLC (small cell lung carcinoma, semi-adherent) | 0.85 | 4.61 |
| LB996-RCC (kidney, adherent) | 0.317 | 0.0897 |
| LB1047-RCC (kidney, adherent) | 0.349 | 0.115 |
| LNCaP-Clone-FGC (prostate, adherent) | 0.963 | > 5.12 |
| LOXIMVI (melanoma, semi-adherent) | 0.911 | > 5.12 |
| NB7 (neuroblastoma, adherent) | 0.957 | > 5.12 |
| NEC8 (testis, adherent) | 0.777 | 1.74 |
| NOMO-1 (acute myeloid leukaemia, suspension) | 0.941 | > 5.12 |
| OVCAR-4 (ovary, adherent) | 0.625 | 0.838 |
| RS4-11 (leukaemia, suspension) | 0.941 | > 5.12 |
| SCC-15 (head and neck, adherent) | 0.87 | > 5.12 |
| SKM-1 (haematopoietic neoplasm, suspension) | 0.982 | > 5.12 |
| SNU-C1 (large intestine, suspension) | 0.97 | > 5.12 |
| SU-DHL-8 (B-cell lymphoma, suspension) | 0.761 | 1.7 |
| TC-71 (Ewing sarcoma, adherent) | 0.991 | > 5.12 |
| TE-10 (oesophagus, adherent) | 0.734 | 1.46 |
